# Test results taken from PubChem BioAssay AID318 (DTP/NCI, 2004).
# Inconclusive results and toxic doses are left out. Not every entry of the source has a single result; some have several. This list holds those alone. An entry can have further records. Results that share an entry are repeated measurements in other runs, samples, wells, individuals or studies.
# Tested on: BDF1 mice, P815 leukemia ip, survival T/C
# Experiment: NCI In Vivo Anticancer Drug Screen. Data for tumor model P815 Mast Cell Leukemia (Ascitic) (intraperitoneal) in B6D2F1 (BDF1) mice
# Details: endpoint: survival time, mean or median, higher = longer survival
# Method: The antitumor activity of compounds was measured in mice bearing transplantable tumors. Survival or tumor size were measured and the results are expressed as the measurement made in the treated group (T) divided by the measurement made in the vehicle treated control group (C). The tumor model used in this assay is P815 Mast Cell Leukemia (Ascitic) (intraperitoneal) in B6D2F1 (BDF1) mice
smiles,measurement,setting,value
Nc1nc(SCc2ccccc2)c2[nH]cnc2n1,T/C,"dose: 32.0 mg/kg/injection, schedule: Q01DX010 (ip), vehicle: saline",122 % of control and 155 % of control
CN(C)/N=N/c1nc[nH]c1C(N)=O,T/C,"dose: 75.0 mg/kg/injection, schedule: Q01DX015 (ip), vehicle: carboxymethylcellulose (CMC)",120 % of control and 168 % of control
Cn1c(N)nc2nc[nH]c2c1=S,T/C,"dose: 80.0 mg/kg/injection, schedule: Q01DX010 (ip), vehicle: saline",112 % of control and 166 % of control
CCCCOP(=S)(N1CC1)N1CC1,T/C,"dose: 8.0 mg/kg/injection, schedule: Q01DX010 (ip), vehicle: saline",105 % of control and 150 % of control
